Source: patent US20200140512A1 (Xencor, published 2020)

Biological target: PD-1 on activated human T cells (anti-CD3-stimulated human PBMCs) (human, UniProt Q15116 25-288)
Test: cell-based or functional assay

proliferation of CD8+ and CD4+ T cells (CFSE dilution), against XENP28543: 2 fold
B1: XENP30046 ([NC]PD-1-targeted IL-15/Rα-Fc comprising mAb C_H1_L1.1 and IL-15(N4D/N65D) variant) (Fc fusion)
chain: ITCPPPMSVEHADIWVKSYSLYSRERYICNSGFKRKAGTSSLTECVLNKATNVAHWTTPSLKCIRGGGGSGGGGSGGGGSGGGGSGGGGS[in this place about 120 residues]EPKSSDKTHTCPPCPAPPVAGPSVFLFPPKPKDTLMISRTPEVTCVVVDVKHEDPEVKFNWYVDGVEVHNAKTKPREEEYNSTYRVVSVLTVLHQDWLNGKEYKCKVSNKALPAPIEKTISKAKGQPREPQVYTLPPSREEMTKNQVSLTCDVSGFYPSDIAVEWESDGQPENNYKTTPPVLDSDGSFFLYSKLTVDKSRWEQGDVFSCSVMHEALHNHYTQKSLSLSPGK
heavy: EVQLVESGGGLVQPGGSLRLSCAASGFTFSSFGMHWVRQAPGKGLEWVSYISSGSSIIYYADSVKGRFTISRDNAKNSLYLQMNSLRAEDTAVYYCARGGRLVWSPDYWGQGTLVTVSSASTKGPSVFPLAPSSKSTSGGTAALGCLVKDYFPEPVTVSWNSGALTSGVHTFPAVLQSSGLYSLSSVVTVPSSSLGTQTYICNVNHKPSNTKVDKKVEPKSCDKTHTCPPCPAPPVAGPSVFLFPPKPKDTLMISRTPEVTCVVVDVKHEDPEVKFNWYVDGVEVHNAKTKPREEQYNSTYRVVSVLTVLHQDWLNGKEYKCKVSNKALPAPIEKTISKAKGQPREPQVYTLPPSREQMTKNQVKLTCLVKGFYPSDIAVEWESNGQPENNYKTTPPVLDSDGSFFLYSKLTVDKSRWQQGNVFSCSVMHEALHNHYTQKSLSLSPGK
light: DIVMTQSPDSLAVSLGERATINCKSSQSLLHSGNQKNYLTWYQQKPGQPPKLLIYWASTRESGVPDRFTGSGSGTDFTLTISSLQAEDVAVYYCQNDYSYPFTFGSGTKLEIKRTVAAPSVFIFPPSDEQLKSGTASVVCLLNNFYPREAKVQWKVDNALQSGNSQESVTEQDSKDSTYSLSSTLTLSKADYEKHKVYACEVTHQGLSSPVTKSFNRGEC
